# Results from the supplement of paper PMC12632987.
# The full ranking holds about 4,500 sequences; the median of “median log2 fold change of GCK-ALFA target abundance (FLAG IP / Myc IP barcode read proportion)” is about 0.078, and the lowest 2% start at about -0.6. This is one part of the list.
# B1: GBRAP_52_6221 (protein)
# chain: SAEEARAAAEEIVEIVETEGVEAAVERLIALAKENSPEFVKAVLAEIARLAESKSLETAEALLDALLAAEDALIAAGVSEADVSDAIAALAAVAVKLEAA
# B2: GBRAP_184_5146 (protein)
# chain: KVLRVFIEAETVEEALEQTREAFEQAKAQGAKLQLFIELENATVEEVDELAKAVKELVDEYGLTDAQVTLVVEADEEEADKIIEAAEKHGIRVVVALEEE
# B3: GBRAP_83_6935 (protein)
# chain: AEKITVVANSDTIEEAFKIAIDLHKEEGLEVEIEIIITREDIEKLLEEFEKVAKEGVNVELRILLIGATEEEAKELKEKLEEIAKKYGVEVKVEVELVEP
# B4: GBRAP_57_6443 (protein)
# chain: MSRLEKAKKLAEKIKKMLEENAPKEEILKAFEELLDLLSKEELLDLALLLDPSTRADESKEELKKKLLALFKEALEKEGKEAAKEMVDLALGILEMSESE
# B5: GBRAP_52_6100 (protein)
# chain: MEERLEAYARELVAAAKAGDLERVTAILLRIVEEFSEEEVERTLERFAELVSKEPLEEAERMTDIALEALDRVAEETGREELMDDAEARLAAAAYNKTLE
# B6: GBRAP_160_4785 (protein)
# chain: MERVEKVTKKFKEAAEEALKLSEGETVEERANIFDVELGSAILELIEEGLLNDEEEEVAAEVRDELVEKILENPNLTEEELKKLAEEAVEKLREKLKELE
# B7: GBRAP_95_7084 (protein)
# chain: EEELEEAEALMATAVDLYDAGLEEQAARAIRDALDELEELGYKVADKELLERLLRHFVALALRHFDAEEVERALALAEASGAPAEIIAALRAALAALRAA
# B8: GBRAP_83_6901 (protein)
# chain: AEKIAIAVPGDRVEEAVDIAIDLHKNEGYEVELEILATREELPKVRAAVERLFKAGVDAEVTILGEGITPEEAEALEKELRAAAAAAGSKMKITVEAIEP
# B9: GBRAP_160_4197 (protein)
# chain: MEKIEKIIESIREETERVIKALDEESVEEVAVFAAVEYGSVLMEAVELGEENDEILDIIAEAGDEIVKYLRENADASVEERKKKIREITEKAIERIKEAA
# B10: GBRAP_83_6995 (protein)
# chain: KEKITVAATGDHFLEAAEAAIDLHKEEGYEVELEFIATREDKEKVLEAVRKIAEAGVKTEITILAIGFSEEELEELEKELKKIAEEAGADIKITVEGIEL
# B11: GBRAP_52_5937 (protein)
# chain: MEARLRALLDEMIALVKAGDLEGARALAREAVATLSEEELEALIDLLAERALEAAPEDVEYVLELAEILAEELEAEGWDEVLADDLLARVSAAAYKNLQK
# B12: GBRAP_128_3176 (protein)
# chain: AVEEVKKRTEKKMEEIINSDVETARKIAEELFEELKTLSPEEREAAVEVILENLPKLTAEKLEVLADVARKHRDEFDPEGAELVADLEVEALNEALELEE
# B13: GBRAP_184_5337 (protein)
# chain: KTLEVYIPNKSLEEIKKEIEKALKKAAKENASLLITIEAEGLSTEELLELLKYIGEKAKELGIKDVTIGLDIEVNEEDADKLLKVADEYGIRLTVALSDE
# B14: GBRAP_9_7185 (protein)
# chain: MQEIKEKILKEVKEHLALIVEVAPPEHRELVTAESDKVLKELEKAVEDPNTTLEELLEKLEKLFDAFVALMAAHVPPEVARMIEAEAGTAILEAEEIIEE
# B15: GBRAP_80_6774 (protein)
# chain: ALEEAEKAIEEVEKLDPELAERLRKILKRLLEQGASEETLKAFAELAKAVAEALKLGLRETAREAVEEAEEAAELEDEEEITAMLRGIAGEVLMEVEEKE
# B16: GBRAP_52_6236 (protein)
# chain: MEEEQRRKAEEIVALVKAGDREGARALARELARTLNREEAELFIEEFARLAREQPAEDIDAVWEAAEIVAEAFEEAGWPDVLVDDLEARVAAALVEVERR
# B17: GBRAP_78_6612 (protein)
# chain: ETKEEILKLLEEAEELARKVRELAPEVADEANEVAVLLGTAIYFVDTGSESKEEILETLEEAKKAAEELEKLVKGAEEKVQKLVKELKKKIEEAIKLLKK
# B18: GBRAP_125_3144 (protein)
# chain: RREELLRLAEALARAFGYSEEEIAEIRELAEAGDPAQTIVAIALAEDWEELAAAAEEVLPRLTAEEVAELADLAEALLDAPREEFAAAVLARLRELGARL
# B19: GBRAP_57_6454 (protein)
# chain: MSRLEKVEEKAEKTKKLIDENAPKEEIEESIRELLELLSEEVLLDVALILDPTTDPNFSKEELIEKIVEIIMEALEKEGKEKAYKYIDLIEGQAEMDEIE
# Target: GABARAP, O95166
# Sequence (O95166 whole entry, the tested form may be a part): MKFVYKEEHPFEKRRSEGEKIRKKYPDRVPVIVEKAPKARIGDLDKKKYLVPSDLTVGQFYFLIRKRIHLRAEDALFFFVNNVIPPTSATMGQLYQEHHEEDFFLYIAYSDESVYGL
# Assay: median log2 fold change of GCK-ALFA target abundance (FLAG IP / Myc IP barcode read proportion) (log2 ratio); each designed protein is fused to an ALFA-tag nanobody in HEK293 cells to bring the named protein to FLAG-tagged glucokinase (GCK); Myc marks an untargeted standard; higher = target protein stabilised (more abundant)
# Conditions: target protein: 3xFLAG-MCP-GCK-ALFA reporter; HEK293 landing pad (RPLP)
# Method in brief: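 The readout is target abundance, the per-binder median log2 ratio of FLAG to Myc barcode read proportions. It came from HEK293 landing-pad cells carrying a recombined ALFA-nanobody-fused binder library, induced with 2 μg mL^−1 doxycycline and transfected with a plasmid for a FLAG-tagged target and a Myc-tagged standard. After 48 h, lysates were immunoprecipitated with anti-FLAG and anti-Myc, and circular RNA barcodes were reverse transcribed, amplified and sequenced. Each barcode needed a proportion of at least 10^−7 in both replicates and each binder at least 3 barcodes per replicate, a pseudocount of 10^−6 was added, and the replicates were pooled.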
row,Binder,median log2 fold change
1,B1,0.107
2,B2,0.135
3,B3,0.0279
4,B4,0.308
5,B5,-0.366
6,B6,0.154
7,B7,-0.692
8,B8,0.00303
9,B9,-0.0752
10,B10,0.155
11,B11,-0.441
12,B12,0.0821
13,B13,0.236
14,B14,0.153
15,B15,0.36
16,B16,-0.152
17,B17,0.21
18,B18,-0.099
19,B19,0.423
